In PubChem BioAssay AID743279 (National Center for Advancing Translational Sciences (NCATS), 2014):
About 17,000 (4.7%) of roughly 360,000 compounds were called active. Inconclusive results, whose numbers are uncertain, are shown with a selection of clear calls. Rule as the data show it: active = activity change below about -50%; inconclusive = mostly about -30% to -49%; inactive = weaker than that.

Experiment: qHTS for Inhibitors of Inflammasome Signaling: IL-1-beta AlphaLISA Primary Screen
Conditions: THP-1 LPS/ATP IL-1B secretion, 16 h; at 57.5 µM, stronger effect = lower value
Outline: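 THP-1 cells pretreated 1 hr with compounds (up to 57.5 uM final), then stimulated with LPS (250 ng/mL final) plus ATP (1.25 mM final); secreted IL-1B measured by AlphaLISA after 16 hr, decreased signal indicating inhibition.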
% is scaled to controls: 0 for no effect and ±100 for the full control effect.

| Compound | activity change |
| --- | --- |
| CCN(CC)S(=O)(=O)c1ccc(=O)n(CC(=O)N2CCCc3cc(C)ccc32)c1 | inconclusive: -45.6% |
| CCc1ccc(C2=NN(c3ccc(S(N)(=O)=O)cc3)C(c3ccc(F)cc3)C2)cc1 (configuration not stated) | active: -86.7% |
| O=C(c1cccs1)N1CCN(c2ccc(Cl)cc2)CC1 | inconclusive: -41.2% |
| O=C1OC(c2ccc(O)cc2)(c2ccccc2O)c2ccccc21 (configuration not stated) | inconclusive: -49.5% |
| O=[N+]([O-])/C=C/c1ccc2c(ccn2Cc2ccccc2)c1 | active: -90.5% |
| O=C(CSc1ncn[nH]1)Nc1ccc([N+](=O)[O-])cc1Br | inconclusive: -47.9% |
| COc1ccc2c(c1)-c1nc(/N=C/c3ccc(O)c(OC)c3)sc1CC2 | inconclusive: -36.3% |
| CC(C)N(Cc1nccn1C)C(=O)c1ccc2oc(CCCc3ccccc3)nc2c1 | inactive: 0% |
| CC(=O)[C@@H]1[C@@H](C(=O)c2ccccc2)[C@]2(C(=O)Nc3ccccc32)[C@H]2C=Cc3cc(F)ccc3N12 | inactive: 0% |
| CC(C)C(NC(=O)c1ccc(C(C)(C)C)cc1)C(=O)Nc1ccc(N2CCOCC2)cc1 (configuration not stated) | inconclusive: -43.7% |
| O=C(Nc1ccncc1)c1cc(-c2cccc(Br)c2)nc2ccccc12 | active: -77.7% |
| COc1ccc(-c2sc3ccccc3c2-c2ccc(OCCN3CCCCC3)cc2)cc1 | inconclusive: -32.7% |
| CN(C)C(=O)CCc1ccc2c3c([nH]c2c1)[C@]1(CCC2CCCC2)[C@@H](C(=O)N2CCOCC2)C[C@H](CC(=O)NCCCn2ccnc2)C(=O)N1CC3 | inactive: 11.4% |
| CCCCn1c2ccccc2c2cc(CC(N)=O)ccc21 | inconclusive: -36.3% |
| N#C/C(=C\C=C\c1ccccc1[N+](=O)[O-])C(=O)NC1CCCCC1 | active: -104% |
| COc1cc(NC(=O)c2cccc3c(-c4cccnc4)coc23)cc(OC)c1OC | active: -77.7% |
| O=C(NC1CCSC1=O)c1ccc(Oc2ccc(F)cc2)nc1 (configuration not stated) | inconclusive: -30.8% |
| C[C@H]1CN=C(Nc2ccccc2)N1CCCC1CCCC1 | inconclusive: -34.5% |
| COC(=O)c1ccccc1NC(=O)c1nc(S(=O)(=O)Cc2ccccc2)ncc1Cl | inactive: -15.8% |
| COc1cc(OC)cc(-c2nc3ccccc3c(=O)n2OC(=O)c2ccccc2C)c1 | active: -61.2% |
| Cc1cccc(NC(=O)/C(C#N)=C/c2cn(CC(=O)NCc3ccco3)c3ccccc23)c1C | inconclusive: -37.7% |
| Cc1nc(SCC(=O)N(CC(C)C)C2CCS(=O)(=O)C2)c2ccccc2n1 (configuration not stated) | inactive: -24.3% |
| Cc1c(C(=O)N2CCOCC2)sc(NC(=O)CCl)c1C#N | inactive: -22.5% |
| CCn1c(=O)c([N+](=O)[O-])c(NCCc2ccccc2)c2ccccc21 | inconclusive: -44% |
| COc1cccc(-c2cc(NC=O)c3ncc(-c4ccc(F)c(Cl)c4)n3c2)c1 | inconclusive: -45.2% |
| CC(=O)N(Cc1cccs1)Cc1cc2cc(C)c(C)cc2nc1Cl | active: -52.8% |

| Compound | activity change |
| --- | --- |
| COc1cc(C(=O)NCCC2=CCCCC2)ccc1OCc1c(C)noc1C | inconclusive: -32.9% |
| CCC(=O)NC(c1cccc([N+](=O)[O-])c1)c1c(O)ccc2ccccc12 (configuration not stated) | inconclusive: -30.4% |
| CCOC(=O)c1cc2c(=O)n3ccccc3nc2n(Cc2ccco2)c1=NC(=O)c1ccccc1OC | inconclusive: -31.3% |
| Cc1cc(C)c(C(=O)/C=C/c2ccco2)c(=O)[nH]1 | inconclusive: -33.2% |
| CCOC(=O)c1sc(N(Cc2ccccc2)C(=O)COC(=O)c2ccc(O)cc2)nc1C | inconclusive: -36% |
| COc1ccc(/C=C(\NC(=O)c2cccs2)C(=O)Nc2cccc3ccccc23)cc1OC | inactive: 17.5% |
| CN(C)CCCNc1nc(-c2ccccc2)nc2ccccc12 | inconclusive: -35.2% |
| COc1cc(C(=S)N2CCN(C(c3ccccc3)c3ccccc3)CC2)cc(OC)c1O | active: -50% |
| COc1ccc(OC)c(NC(=O)c2ccc(-c3csc(C)n3)cc2)c1 | inactive: -0.556% |
| Cc1ccc(-c2ccc(CN3C(C)C(=O)N(Cc4cn(CC5CCCCC5)nn4)CCS3(=O)=O)cc2)cc1 (configuration not stated) | inconclusive: -40.7% |
| COc1ccc(-c2csc(NC(=O)COC(=O)C3=COCCO3)n2)cc1 | inactive: -18.6% |
| COc1ccc(NC2CCCN(C(=O)c3cn(C)c4ccccc34)C2)cc1 (configuration not stated) | inactive: -5.88% |
| CCOC(=O)C(=NCCCN1CCOCC1)NNc1cccc(C(F)(F)F)c1 | inconclusive: -38% |
| CC1CCCN(c2sc(S(C)(=O)=O)nc2S(=O)(=O)c2ccc(Cl)cc2)C1 (configuration not stated) | active: -70.7% |
| CCOC(=O)[C@]12CCCC=C1N(Cc1ccc3c(c1)OCO3)C(=O)[C@H](CC(=O)NCCc1ccccc1OC)C2 | inconclusive: -33.3% |
| COc1ccc(OC)c(CCNC(=O)CS(=O)(=O)Cc2nc(-c3ccccc3Cl)oc2C)c1 | active: -52.5% |
| Cc1nn2c(=O)c3c4c(sc3nc2n1-c1ccccc1)COC(C)(C)C4 | inconclusive: -31.6% |
| CCC(C)[C@@H](N)C(=O)N/N=C/c1ccc2ncccc2c1 (some centres not stated) | inactive: 13.1% |
| Cc1cccc(NC(=O)CCN2CC(C)CC(C)C2)c1 (configuration not stated) | inconclusive: -32.9% |
| CC(C)(C)c1ccc(-c2noc(CCC(=O)NCc3ccco3)n2)cc1 | active: -57.1% |
| Cc1ccc(NC(=S)N(CCCN2CCCC2)Cc2cccn2Cc2ccc(Cl)cc2)cc1 | inconclusive: -48.2% |
| O=C(NCCc1nnc2ccc(NCc3ccccc3Cl)nn12)c1ccccc1 | inconclusive: -32.1% |
| CN1CCN(c2ccc(S(=O)(=O)N3CCCCC3)cc2NC(=O)CCc2ccccc2)CC1 | inconclusive: -30.4% |
| CCCc1[nH]nc2c1C(c1cc(OC)cc(OC)c1)C(C#N)=C(N)O2 (configuration not stated) | inconclusive: -45.5% |
| O=C(C1CCN(CC2CC=CCC2)CC1)N(CCc1ccccc1)Cc1ccccc1 (configuration not stated) | inconclusive: -39.5% |
| COc1ccc(NC(=O)N(C)C[C@@H]2OCc3ccccc3-c3c(n(C)c4ccccc34)C(=O)N([C@H](C)CO)C[C@H]2C)c(OC)c1 | inconclusive: -32% |
